In test [1] the target is Arabidopsis RACK1A (Receptor for Activated C Kinase 1A), wild type, split-ubiquitin bait and prey fusions (Arabidopsis thaliana) (UniProt O24456). The experiment in a line: split reporter; yeast split-ubiquitin system in S. cerevisiae JD53; bait fused to Cub-URA3, prey fused to NuI; interaction read as growth on 5-FOA (0.1%) plates, 30 C, 4 days, and as no growth on plates lacking uracil.

Sequences of proteins named here, by UniProt entry; tags and fusion partners are left off. A change or cut given only in a name is not applied to a line headed by its entry.
UniProt O24456: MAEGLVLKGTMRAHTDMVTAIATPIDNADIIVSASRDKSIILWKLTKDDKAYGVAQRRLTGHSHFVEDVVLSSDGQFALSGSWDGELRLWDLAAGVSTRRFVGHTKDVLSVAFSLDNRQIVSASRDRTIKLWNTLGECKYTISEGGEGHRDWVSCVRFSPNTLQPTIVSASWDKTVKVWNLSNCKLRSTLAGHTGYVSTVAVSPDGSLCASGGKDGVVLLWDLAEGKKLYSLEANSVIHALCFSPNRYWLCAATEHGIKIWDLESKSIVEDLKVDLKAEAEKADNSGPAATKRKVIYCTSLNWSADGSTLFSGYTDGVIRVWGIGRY

Test [2] addresses Arabidopsis RACK1A, wild type, BiFC fusions nYFP-RACK1A and cYFP-RACK1A (Arabidopsis thaliana) (UniProt O24456). The experiment in a line: split reporter; BiFC with nEYFP and cEYFP fusions, transient expression in onion epidermal cells by gene gun, 24 h in the dark, confocal microscopy.
The target of test [3] is Arabidopsis RACK1A-Y248F, BiFC fusions nYFP-Y248F-RACK1A and cYFP-Y248F-RACK1A (Arabidopsis thaliana) (UniProt O24456). Described as above.
Test [4] addresses Arabidopsis RACK1A-Y248F, split-ubiquitin bait and prey fusions (Arabidopsis thaliana) (UniProt O24456). The experiment in a line: split reporter; yeast split-ubiquitin system in S. cerevisiae JD53; bait fused to Cub-URA3, prey fused to NuI; interaction read as growth on 5-FOA (0.1%) plates, 30 C, 4 days, and as no growth on plates lacking uracil.

No constants are given. Whether binding was seen depends on the method and setting. In cells and extracts the contact can be indirect. Some entries that bind do so weakly or less than the wild type.

In the case of “Arabidopsis RACK1A (Receptor for Activated C Kinase 1A), wild type, split-ubiquitin bait and prey fusions (from UniProt O24456 1-327)”, in test [1], the binding entry is recorded as “binds”.

As to “Arabidopsis RACK1A, wild type, BiFC fusions nYFP-RACK1A and cYFP-RACK1A (from UniProt O24456 1-327)”, the binding result in test [2] was “binds”.

Turning to “Arabidopsis RACK1A-Y248F, BiFC fusions nYFP-Y248F-RACK1A and cYFP-Y248F-RACK1A (from UniProt O24456 1-327)”, the binding result in test [3] is reported as “no binding”.

Consider “Arabidopsis RACK1A-Y248F, split-ubiquitin bait and prey fusions (from UniProt O24456 1-327)”, for which the binding result in test [4] is recorded as “no binding”.

B1: Plastocyanin (AT1G20340), split-ubiquitin prey (protein, UniProt P42699 69-167)
chain: IEVLLGGGDGSLAFIPNDFSIAKGEKIVFKNNAGYPHNVVFDEDEIPSGVDVAKISMDEQDLLNGAGETYEVALTEPGTYSFYCAPHQGAGMVGKVTVN
In the case of B1, the binding result in test [4] is recorded as “no binding”; in test [1], “binds”.

Source of the values: PMC4764707.
